Source: PubChem BioAssay AID624296 (National Center for Advancing Translational Sciences (NCATS), 2012)
“And” between values parts separate entries of the source, which are not always exact repeats. Equal values may be shown once. In all, about 350,000 compounds went through this assay and about 9,900 (2.8%) were called active. The shares of active, inactive and inconclusive entries below differ from those in the screen. Calls come from the whole dose curve; as a rule, active = well fitted activation curve with a large enough effect; inconclusive = small, poorly fitted or top-dose-only effect; inactive = no such curve, though single readings can be large or run the other way. Potencies beside an inconclusive call are fits to weak or partial responses and may not hold up.

Assay: A quantitative high throughput screen for small molecules that induce DNA re-replication in MCF 10a normal breast cells. Note: nearly all actives have a fitted effect of over 50% in size.
Settings: MCF 10A DNA re-replication, Hoechst nuclear intensity, 48 h; series mostly up to 46.1 µM
Potency is the fitted concentration of half-maximal effect; tags give direction and shape of the fitted curve.

Compound | Potency
Cc1cccc(Oc2ccc(S(=O)(=O)N3CCCCC3)cc2N)c1 | inconclusive: 29.1 µM [activator, single point]
CCOc1ccc(CSC2=NCCN2)cc1Cl | inconclusive: 20.6 µM [activator, single point]
CCOC(=O)c1nn(-c2ccccc2Cl)c(=O)cc1OCC(=O)Nc1cccc(OC)c1 | inconclusive: 29.1 µM [activator, single point]
Cn1cc([N+](=O)[O-])c(C(=O)Nc2ccn(Cc3c(F)c(F)cc(F)c3F)n2)n1 | inconclusive: 23.1 µM [activator, single point]
O=S(=O)(c1cccs1)N1CCN(CC(O)COc2cc(Cl)ccc2Cl)CC1 (configuration not stated) | inconclusive: 23.1 µM [activator, partial curve, poor fit]
CCN(CC)S(=O)(=O)c1ccc(N2CCOCC2)c(NC(=O)c2sccc2C)c1 | inconclusive: 18.4 µM [activator, partial curve, poor fit]
CCc1ccc(-c2cn(-c3nc(C)cc(C)n3)c(=N)o2)cc1 | active: 23.1 µM
Clc1ccc(CSc2nnc(-c3ccccn3)n2Cc2ccco2)c(Cl)c1 | inconclusive: 23.1 µM [activator, single point]
CCOC(=O)N1CCN(Cc2nc(-c3ccc(OC)cc3)no2)CC1 | inactive
Cc1cc(N2CCN(c3ccc(C(F)(F)F)cc3[N+](=O)[O-])CC2)c2ccccc2n1 | inconclusive: 23.1 µM [activator, single point]
CCOC(=O)c1c[nH]n(-c2ccc(C)cc2)c1=O | inactive
COc1ccc(CNc2ccc(N3CCN(C(C)=O)CC3)cc2)cc1OC | inactive
O=C1NC(CCc2ccccc2)C(=O)N1Cc1ccc(Br)cc1 (configuration not stated) | inactive
COc1ccc2oc(C(=O)Nc3nc4ccccc4[nH]3)c(C)c2c1 | inconclusive: 4.61 µM [activator, full curve, poor fit]
CCOC(=O)c1sc2nc(CC(=O)OC)nc(N3CCN(c4ccccn4)CC3)c2c1C | inconclusive: 20.6 µM [activator, single point]
CC(C)(C)[C@]1(O)CCN2C[C@H]3c4ccccc4CCc4cccc(c43)[C@@H]2C1 | inconclusive: 11.6 µM [activator, partial curve] and inconclusive: 29.1 µM [activator, single point]
COc1ccc(-c2nnc(-c3ccc(F)cc3)o2)cc1 | inactive
NC(=O)[C@H]1O[C@@H](O)[C@H](O)[C@@H](O)[C@@H]1O | inactive
CN(Cc1ccccc1)C(=O)c1[nH]cnc1C(=O)NCc1ccccc1 | inconclusive: 20.6 µM [activator, single point]
C=C(C)CNC(=S)N/N=C/C1=CCC2CC1C2(C)C (configuration not stated) | inconclusive: 18.4 µM [activator, single point]
COc1ccccc1NS(=O)(=O)c1cc(NC(=O)c2cc3ccccc3oc2=O)ccc1C | inconclusive: 32.6 µM [activator, partial curve, poor fit]
Nc1nc(SCc2ccc(Br)cc2)c2ncn(C3OC(CO)C(O)C3O)c2n1 (configuration not stated) | inactive
O=C(c1ccncc1)N1CCN(S(=O)(=O)c2cc(C(F)(F)F)cc(C(F)(F)F)c2)CC1 | inconclusive: 4.61 µM [activator, single point]

Compound | Potency
COC(=O)c1ccc(C)cc1C1CN=NC12Cc1cc(C)ccc1C2=O (configuration not stated) | inconclusive: 18.4 µM [activator, single point]
O=C(Nc1ccc(CN2CCOCC2)cc1)c1cccc(-c2cc3ccccc3oc2=O)c1 | inconclusive: 25.9 µM [activator, single point]
O=c1cc(CSc2nnc(COc3cccc4ccccc34)o2)c2ccccc2[nH]1 | inactive
O=C1[C@@H](Oc2ccccc2)[C@@H](c2cnc3ccccc3c2)N1c1ccccc1 | inconclusive: 29.1 µM [activator, single point]
O=C(c1ccccc1F)N(Cc1ccc2c(c1)OCO2)Cc1cc2cc3c(cc2n2nnnc12)OCO3 | inconclusive: 2.06 µM [activator, partial curve]
COC(=O)c1cnc(Oc2c(Cl)cc(N)cc2Cl)cc1C(F)(F)F | inconclusive: 2.59 µM [activator, single point]
CCC1(C(=O)c2ccccc2)C(c2cccc([N+](=O)[O-])c2)C1(C(=O)OC)C(=O)OC (configuration not stated) | inconclusive: 18.4 µM [activator, partial curve, poor fit]
C=C(CCO)C1=CCN(S(=O)C(C)(C)C)[C@@H]1CCO (some centres not stated) | inactive
CCOc1ccccc1C1CC(=O)Nc2cc(C)c(C)cc21 (configuration not stated) | inconclusive: 29.1 µM [activator, partial curve, poor fit]
S=c1[nH]nc(-c2ccncc2)n1Cc1ccco1 | inactive
O=C(COC(=O)Cc1ccc(S(=O)(=O)N2CCOCC2)s1)Nc1ccccc1 | inactive
O=C(N1CCOCC1)N1CCN(c2ccccn2)CC1 | inactive
CCOC(=O)C1CCCN(C(=O)Cn2cccc2C(=O)c2ccccc2)C1 (configuration not stated) | inactive
Cc1ccc2c(=O)cc(C(=O)NC3CCS(=O)(=O)C3)oc2c1 (configuration not stated) | inactive
Cc1ccc(NC(=O)/C=C/c2cccs2)c([N+](=O)[O-])c1 | inconclusive: 13 µM [activator, partial curve]
Cc1cc(/C=C(/C#N)C(=O)Nc2ccc(Cl)cc2)c(C)n1-c1cccnc1 | inconclusive: 9.2 µM [activator, partial curve, poor fit]
COc1ccc(/C=N/Nc2ncc(-c3ccccc3)cn2)c(OC)c1 | inconclusive: 23.1 µM [activator, single point]
CC(C)[C@H](NC(=O)c1cccc(S(=O)(=O)N2CCOCC2)c1)C(=O)Nc1nc2ccccc2s1 | inactive
COc1ccc(S(=O)(=O)N2CCCCCC2)cc1C(=O)N1CCN(c2ccccc2O)CC1 | inactive
O=C1/C(=C/c2ccccc2)CN(C(=O)CCN2CCOCC2)C/C1=C\c1ccccc1 | active: 2.31 µM
O=C(Nc1nnc(COc2ccccc2)s1)C1CCN(S(=O)(=O)c2ccc(Cl)cc2)CC1 | inconclusive: 14.1 µM [activator, partial curve, poor fit]
Cc1ccc(N(C)S(=O)(=O)c2cccc(C(=O)Nc3nnc(C4CC4)s3)c2)cc1 | inconclusive: 29.1 µM [activator, single point]
O=C(COC(=O)CSc1nnc(-c2ccc(Cl)cc2)o1)Nc1cc(Cl)cc(Cl)c1 | inconclusive: 29.1 µM [activator, partial curve, poor fit]

Compound | Potency
CCOC(=O)c1c(N2C(=O)CC(Sc3ccccc3C(=O)O)C2=O)sc2c1CCCC2 (configuration not stated) | inconclusive: 23.1 µM [activator, single point]
COc1ccccc1NC(=O)Nc1nc(CC(=O)Nc2ccccc2F)cs1 | inconclusive: 11.6 µM [activator, single point]
CC(C)c1ccc(NC(=O)COC(=O)/C=C/c2cccc([N+](=O)[O-])c2)cc1 | inconclusive: 29.1 µM [activator, single point]
COC(=O)C1=CN(C2CC2)C=C(C(=O)OC)C1c1ccc(C(=O)OC)cc1 | inconclusive: 32.6 µM [activator, partial curve, poor fit]
COc1ccc2c(c1OC)C(=O)N(c1cccc(C)c1)C2 | inactive
COc1cccc(-c2sc3ccc(OC)cc3c2-c2ccc(C(N)=O)cc2)c1 | inconclusive: 29.1 µM [activator, single point]
COc1cccc(N2CCN(C(=O)c3ccc(CS(=O)c4ccc(Cl)cc4)o3)CC2)c1 (configuration not stated) | inconclusive: 0.259 µM [activator, full curve, poor fit]
c1ccc2c(c1)OCCOCCOCCO2 | inconclusive: 0.0291 µM [activator, full curve, poor fit]
CCOC(=O)C1=C(N)N(c2ccccc2)C(=O)C1 | inconclusive: 29.1 µM [activator, single point]
Cc1nnc(SCc2ccc([N+](=O)[O-])cc2)o1 | inconclusive: 18.4 µM [activator, single point]
Nc1c(Cl)cc(C2=NCCn3nc4cc([N+](=O)[O-])ccc4c32)cc1Cl | inconclusive: 29.1 µM [activator, single point]
O=C(COc1ccccc1)Nc1cccc(-c2cn3cccnc3n2)c1 | inactive
O=C(NC1=NCCS1)C1Cc2ccccc2CN1C(=O)c1ccccc1 (configuration not stated) | inconclusive: 20.6 µM [activator, partial curve, poor fit]
CC(=O)c1cc(-c2ccccc2)n(CC(=O)Nc2cc(C)cc(C)c2)c1C | inconclusive: 29.1 µM [activator, single point]
C=CCc1ccc(OCCCCNC2CCCC2)c(OC)c1 | inconclusive: 13 µM [activator, partial curve, poor fit]
O=C(CC1C(=O)NCCN1CC1CCCCC1)NCc1cc(F)ccc1F (configuration not stated) | inactive
COCc1ccc(C(=O)N2CCCC(N3CCN(c4ccc(F)cc4)CC3)C2)o1 (configuration not stated) | inactive
CCN1C(=O)C(c2ccc(O)cc2)(c2ccc(O)cc2)c2ccccc21 | inactive
Cc1ccc(NC(=O)CN(CCc2ccccc2)S(C)(=O)=O)cc1 | inconclusive: 6.51 µM [activator, single point]
Cc1ccnc(NC(=O)C23CC4CC(CC(C4)C2)C3)c1 | inconclusive: 11.6 µM [activator, partial curve, poor fit]
CCOc1ccc(C(=O)N(Cc2ccc(OC)cc2)Cc2cc3cc(OC)ccc3[nH]c2=O)cc1 | inconclusive: 10.3 µM [activator, partial curve, poor fit]
